One test deals with HSkMC. Put plainly: cytotoxicity call (relative viability < 0.9). The note with it: 10 µM.
The next test has as its system S. aureus RN4220. In words: growth inhibition call (relative growth <= 0.2). The note with it: 50 µM.

From the antibiotic and cytotoxicity screens of Wong et al. (2023) come the findings set out here.

This is one part of the list.

Regarding `C[C@H](CO)N1C[C@H](C)[C@H](CN(C)C(=O)CN(C)C)Oc2cc(C#CCC3CCCC3)ccc2S1(=O)=O`, the cytotoxicity call with HSkMC was “inactive”. Besides, in the test with S. aureus RN4220, the growth inhibition call was “inactive”.

For the compound `CC(C)NC(=O)Nc1ccc2c(c1)CC(=O)N([C@H](C)CO)C[C@H](C)[C@H](CN(C)Cc1ccc(C(=O)O)cc1)O2`, the cytotoxicity call in the test on HSkMC was “inactive”. In addition, in the test with S. aureus RN4220, the growth inhibition call is “inactive”.

Take `C[C@H]1CCCCO[C@H](CN(C)Cc2ccc(C(F)(F)F)cc2)[C@@H](C)CN([C@@H](C)CO)C(=O)c2cc(NC(=O)c3ccncc3)ccc2O1`: the cytotoxicity call with HSkMC is “inactive”. Moreover, the growth inhibition call in the test on S. aureus RN4220 is “inactive”.

Regarding `C[C@H](CO)N1C[C@H](C)[C@H](CN(C)C(=O)Nc2ccc(F)cc2)Oc2ccc(NC(=O)CCN3CCOCC3)cc2CC1=O`, in the test on HSkMC, the cytotoxicity call was “inactive”. The growth inhibition call in the test with S. aureus RN4220 is “inactive”.

As to `Cc1cc(C(=O)Nc2cccc3c2O[C@@H](CN(C)Cc2ccc(Oc4ccccc4)cc2)[C@@H](C)CN([C@@H](C)CO)C3=O)n(C)n1`, the cytotoxicity call with HSkMC is “inactive”. Also, the growth inhibition call in the test with S. aureus RN4220 is “inactive”.

For the compound `CCCC(=O)Nc1ccc2c(c1)C(=O)N(C)C[C@@H](OC)[C@H](C)CN(S(=O)(=O)c1cn(C)cn1)[C@H](C)CO2`, the cytotoxicity call in the test with HSkMC is “inactive”. The growth inhibition call in the test with S. aureus RN4220 is “inactive”.

As for `CN(C)CCCNC(=O)C[C@@H]1CC[C@@H]2[C@H](COc3ccc(NC(=O)c4ccccc4F)cc3C(=O)N2C)O1`, the cytotoxicity call with HSkMC is “inactive”. Besides, the growth inhibition call in the test on S. aureus RN4220 was “inactive”.

Consider `Cc1ccc(S(=O)(=O)Nc2cccc3c2O[C@H](CN(C)Cc2ccc(-c4ccccc4)cc2)[C@@H](C)CN([C@H](C)CO)C3=O)cc1`, for which the cytotoxicity call in the test on HSkMC was “inactive”. The growth inhibition call with S. aureus RN4220 is “inactive”.

As to `CS(=O)(=O)N1CC[C@]2(COCc3cnc(N4CCOCC4)nc32)C1`, the cytotoxicity call in the test with HSkMC is “inactive”. For the same compound, in the test with S. aureus RN4220, the growth inhibition call was “inactive”.

On to `NC(=O)[C@H]1C[C@@H]2C=C[C@H]1C2`, for which, in the test with HSkMC, the cytotoxicity call is “inactive”. Besides, the growth inhibition call with S. aureus RN4220 is “inactive”.

Take `CCCN(C)C[C@H]1OCCCC[C@@H](C)Oc2ccc(NS(=O)(=O)c3cn(C)cn3)cc2C(=O)N([C@@H](C)CO)C[C@@H]1C`: the cytotoxicity call with HSkMC is “inactive”. For the same compound, the growth inhibition call with S. aureus RN4220 was “inactive”.

Regarding `O=C(NO)c1cccc(C(=O)N/N=C/c2cc(I)cc(I)c2O)c1`, the cytotoxicity call in the test on HSkMC was “inactive”. Moreover, in the test on S. aureus RN4220, the growth inhibition call was “inactive”.

For `NC[C@@H](O)c1ccc2ccccc2c1`, in the test on HSkMC, the cytotoxicity call was “inactive”. Besides, in the test on S. aureus RN4220, the growth inhibition call is “inactive”.

Turning to `COc1ccc(NC(=O)N(C)C[C@@H]2Oc3ncc(C#C[C@H](C)O)cc3C(=O)N([C@@H](C)CO)C[C@H]2C)cc1`, the cytotoxicity call in the test on HSkMC is “inactive”. Also, in the test on S. aureus RN4220, the growth inhibition call was “inactive”.

For the compound `COc1ccc(S(=O)(=O)Nc2cccc3c2O[C@@H](CN(C)S(=O)(=O)c2cn(C)cn2)[C@H](C)CN([C@@H](C)CO)C3=O)cc1`, the cytotoxicity call in the test on HSkMC was “inactive”. The growth inhibition call with S. aureus RN4220 was “inactive”.

Take `C[C@@H]1CCCCO[C@@H](CN(C)Cc2ccc(C(=O)O)cc2)[C@@H](C)CN([C@@H](C)CO)C(=O)c2cc(NS(=O)(=O)c3ccc(F)cc3)ccc2O1`: in the test on HSkMC, the cytotoxicity call was “inactive”. Moreover, the growth inhibition call in the test on S. aureus RN4220 is “inactive”.

For the compound `CC(C)C[C@H](N)C(=O)O`, the cytotoxicity call in the test with HSkMC was “inactive”. Further, in the test with S. aureus RN4220, the growth inhibition call was “inactive”.

As to `C[C@H]1CN([C@@H](C)CO)C(=O)c2c(c3ccccc3n2C)-c2ccccc2CO[C@H]1CN(C)C(=O)Nc1cccc(C(F)(F)F)c1`, the cytotoxicity call in the test on HSkMC was “inactive”. For the same compound, in the test with S. aureus RN4220, the growth inhibition call was “inactive”.

On to `Cc1noc(C)c1NC(=O)N(C)C[C@H]1OCCCC[C@@H](C)Oc2ccc(NC(=O)CCC(F)(F)F)cc2C(=O)N([C@H](C)CO)C[C@@H]1C`, for which the cytotoxicity call in the test with HSkMC was “inactive”. Besides, the growth inhibition call in the test with S. aureus RN4220 is “inactive”.

As to `C[C@H]1CN([C@@H](C)CO)C(=O)c2c(c3ccccc3n2C)-c2ccccc2CO[C@H]1CN(C)CC1CCCCC1`, in the test with HSkMC, the cytotoxicity call was “inactive”. For the same compound, in the test with S. aureus RN4220, the growth inhibition call is “inactive”.

Take `C[C@@H]1CN([C@H](C)CO)C(=O)Cc2cc(NC(=O)NC3CCCCC3)ccc2O[C@H]1CN(C)S(=O)(=O)c1cn(C)cn1`: the cytotoxicity call in the test with HSkMC was “inactive”. Besides, in the test on S. aureus RN4220, the growth inhibition call is “inactive”.

Consider `Cc1ccc(-c2ccc3c(c2)O[C@@H](CN(C)C(=O)NC(C)C)[C@H](C)CN([C@@H](C)CO)S3(=O)=O)cc1`, for which the cytotoxicity call in the test with HSkMC was “inactive”. The growth inhibition call in the test with S. aureus RN4220 is “inactive”.

Take `O=S(=O)(NCC[C@@H]1CC[C@@H](NS(=O)(=O)c2ccccc2Cl)[C@H](CO)O1)c1ccc(F)cc1`: the cytotoxicity call with HSkMC is “inactive”. For the same compound, the growth inhibition call in the test on S. aureus RN4220 was “inactive”.

In the case of `Cc1noc(C)c1S(=O)(=O)Nc1ccc2c(c1)C(=O)N([C@H](C)CO)C[C@H](C)[C@@H](CN(C)Cc1ccc(C(=O)O)cc1)O2`, the cytotoxicity call in the test with HSkMC was “inactive”. Further, the growth inhibition call in the test with S. aureus RN4220 is “inactive”.

Take `C[C@H](CO)N1C[C@H](C)[C@@H](CN(C)S(C)(=O)=O)Oc2c(NC(=O)NC3CCCCC3)cccc2C1=O`: the cytotoxicity call in the test on HSkMC was “inactive”. The growth inhibition call with S. aureus RN4220 was “inactive”.

Regarding `Clc1ccc(Cn2ccnc2)cc1`, the cytotoxicity call with HSkMC is “inactive”. The growth inhibition call in the test on S. aureus RN4220 was “inactive”.

Turning to `C[C@@H]1CN([C@H](C)CO)S(=O)(=O)c2ccc(C#Cc3cccc(F)c3)cc2O[C@@H]1CN(C)CC1CC1`, the cytotoxicity call with HSkMC was “inactive”. Besides, the growth inhibition call in the test on S. aureus RN4220 was “inactive”.

With `C[C@@H]1CCCCO[C@H](CN(C)Cc2ccc(Cl)c(Cl)c2)[C@@H](C)CN([C@@H](C)CO)C(=O)c2cc(NC(=O)Nc3ccccc3)ccc2O1`, the cytotoxicity call in the test on HSkMC is “inactive”. For the same compound, in the test with S. aureus RN4220, the growth inhibition call is “inactive”.

As for `C[C@H]1CN([C@@H](C)CO)C(=O)c2cccc(NC(=O)c3nc4ccccc4s3)c2O[C@H]1CN(C)S(=O)(=O)c1cn(C)cn1`, the cytotoxicity call in the test on HSkMC (human skeletal muscle cells) was “active”. The growth inhibition call in the test on S. aureus RN4220 is “inactive”.

As for `Cl.OC(CCN1CCCCC1)(c1ccccc1)C1CCCCC1` (stereo not given), the cytotoxicity call in the test with HSkMC is “inactive”. Also, the growth inhibition call in the test with S. aureus RN4220 is “inactive”.
